± gives the standard deviation of the averaged measurements. The list shows a part of the results.

The test system of this assay is PfAP2-EXP AP2 domain (GST-tagged). As to the kind of experiment: gcPBM binding intensity (ln(normalized median fluorescence intensity)); higher = stronger DNA binding. The essentials:
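Using an Agilent 4 × 180k array, primer-extended double-stranded 36-bp intergenic genomic probes and negative controls were exposed for 1 h to GST-fused P. falciparum DNA-binding domains expressed in E. coli. Binding was carried out in 1× PBS with 1% milk, 0.2 mg/ml BSA, 0.5% salmon testes DNA and 0.03% Triton X-100, and protein was detected with Alexa488 anti-GST antibody and a 488 nm scan. Binding intensity is the highest Masliner-normalised natural-log median intensity across replicate spots of either probe orientation.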
On to “ATATATATATATAATACACACTAAAGTAACATAATA [CACACA_site5580]”, for which the “gcPBM binding intensity (ln)” value stood at 9.74 ± 0.11.
As for “TATTAAACTTGACACACACACACACGCATATATAAA [CACACA_site6496]”, the figure is 8.63 ± 0.33.
As for “TTTTTTAATACATATGCATGTTCAAGTACGAAAAAA [TGCATGCA_site641]”, the figure is 8.61 ± 0.43; as for “TACGGGAAAGATAAGAAACACACGGAAAATTAGACG [CACACA_site1661]”, 9.13 ± 0.52.
As for “ATATATTTTATACATACACACATATAAATATTTTTT [CACACA_site7780]”, the figure is 8.52 ± 0.36; as for “GGAACAAATAATATCACACATATATATATATATATA [CACACA_site5670]”, 10.3 ± 0.23; as for “TACGCAACCAAAAGTTGTACTAATTTTTTTTTTTTG [XGTACX_site7432]”, 8.68 ± 0.47.
“TAATAAATATATTGAAGTACTTATAAAAAGCAATAT [XGTACX_site6262]”: the “gcPBM binding intensity (ln)” value came to 9.14 ± 0.53.
The value for TTAAAAGTAAGCAAAGTGCATATAACAAAAGTAAAG was 8.95 ± 0.34; that for “AATATAAAACTTTAGAGTACTTATCATTAAAATATA [XGTACX_site4509]” was 8.06 ± 0.32.
Take “TAAAATAAAAAAGTAGTACACACTTCACGATATTTT [CACACA_site3896]”: the “gcPBM binding intensity (ln)” value was 8.53 ± 0.37.
The value for “ATTAATAATGAAAAAAAACACACGGTACATTCAAAG [CACACA_site1302]” was 8.82 ± 0.55.
The value for “TATTTAAAATAATGTGCAAAAGAATAAATAAATAAA [TGCATGCA_negctrl_site194]” was 8.89 ± 0.42; that for “TTGTAAGAAAGACACACACACACATATAAATATGTA [CACACA_site6516]” was 8.49 ± 0.54.
For “TTCATTTTCATATATTGTACAAAATTTTATAAGGTT [XGTACX_site4522]”, the “gcPBM binding intensity (ln)” value was determined as 8.64 ± 0.49.
The value for “TATATATATATATATACACACATACAGATATATATT [CACACA_site4629]” was 10.2 ± 0.36.
For the sequence “TATATAAGAACTTTTACACACATGAAAATGTAGATA [CACACA_site7711]”, the “gcPBM binding intensity (ln)” value was found to be 8.36 ± 0.23.
As for “CACTAAAAGAAACACACACACACACCCATATATATA [CACACA_site4151]”, the figure is 8.78 ± 0.071.
The value for “TTACTATTATTATTTTTTATTTTTATTTTATTTATT [TGCATGCA_negctrl_site269]” was 8.57 ± 0.21; that for “ATATACACATATACATGTACAAATATATATACACAT [XGTACX_site2986]” was 8.72 ± 0.35; that for “ACACAAATAAATATAACATATATATTATATTATATT [CACACA_negctrl_site710]” was 8.22 ± 0.3.
As for “TTTATATAAATTTTTTGTACACAAGTAAAAACGCGT [XGTACX_site2459]”, the figure is 8.68 ± 0.33; as for “ATAAAATATATATATATAAAAATAAATACATAAATA [GTGCAC_negctrl_site157]”, 8.44 ± 0.38.
With “CAAACAAACAGACACACACACACACCCAAAAATGAT [CACACA_site2430]”, the “gcPBM binding intensity (ln)” value came to 8.65 ± 0.45.
The value for “TCAATATTAAATTATTGTACATGTATGTATATATAT [XGTACX_site3861]” was 8.775 ± 0.064; that for “TTTTTTTTTTTTTTTTTACACACTTTATTCAAACAA [CACACA_site9360]” was 8.2 ± 0.42.
The value for “TACACCCACCCACATACACACACATACACATATATA [CACACA_site8503]” was 9.33 ± 0.71; that for “AAAAAAAAAAATATATTAAAATAAAAAATATTAACA [GTGCAC_negctrl_site13]” was 8.16 ± 0.33; that for “CCACTTAAAATAAAAAGTACATACAGGTGTTATACA [XGTACX_site8124]” was 8.54 ± 0.42.
As for “AAATTGGTTCATCAATGTACATGTAAAATAAATCAA [XGTACX_site4795]”, the figure is 8.88 ± 0.46; as for “AATAATGTTATAAATTGTACGTGTATTATTCATTAC [XGTACX_site894]”, 8.47 ± 0.4.
Consider “TAATGAGGAAATACAGCACACGTTATTACACTTTTC [CACACA_site5399]”, for which the “gcPBM binding intensity (ln)” value is 8.46 ± 0.4.
As for “TATATTTATCCATACAAGAAAAAAAAAAAAAAAATA [CACACA_negctrl_site1328]”, the figure is 8.17 ± 0.55; as for “CAAATAAAAACAAAACGTACGAATAAATTATTGTTA [XGTACX_site5136]”, 8.89 ± 0.36.
As for “CACATATAAATATTAACACACATAATGAATTATATA [CACACA_site2741]”, the figure is 8.17 ± 0.28; as for ATATATAAAAATTAGGTGCATTAAATTAAAATATAT, 8.98 ± 0.45.
Take “ATATCGTTATTTTTATGTACTAAAATATTTAATTAT [XGTACX_site3516]”: the “gcPBM binding intensity (ln)” value was determined as 8.88 ± 0.47.
As for “TATTTGATCTAAAGAGCATGCAAAAACGAACAAGAT [TGCATGCA_site136]”, the figure is 9.96 ± 0.5; as for “TTTTTTTTTTATTGTACATGCAAAAAATTCCACACA [TGCATGCA_site279]”, 8.79 ± 0.12.
The value for “TTTAAATAAAATATTACACACTTAGAAAGATATATA [CACACA_site7684]” was 8.17 ± 0.31.
Take AGCATATTATTTTAGGTGCACTTGAAATGTGTTAAC: the “gcPBM binding intensity (ln)” value was found to be 9.06 ± 0.3.
The value for TATTTTTATTATATGGTGCATATATACATACATATA was 8.875 ± 0.007; that for “TTCAAGCCCTTCTGCTTACACACAGTAATTATTGTG [CACACA_site2952]” was 8.94 ± 0.61; that for “AAGTGCATATTATTCACACATAATAATTGTATACCT [CACACA_site5965]” was 8.85 ± 0.14.
As for “ATATGATCATAAAACACACACACAAAAAAAAAAAAA [CACACA_site1806]”, the figure is 8.29 ± 0.61; as for “AAAAAAAAAAAACACACACACAATAGTATATAAATC [CACACA_site956]”, 8.72 ± 0.49.
As for “AATTAGATGGATAAATGTACATAATGTGAATATATT [XGTACX_site86]”, the figure is 8.96 ± 0.42; as for “ATCCACTTTTTGAAGACACACACAAAAAAAAAAAAA [CACACA_site8818]”, 8.36 ± 0.59.
As to “TAAAAATAATTTGCATGTACATAGGTCGATGTATTT [XGTACX_site1357]”, the “gcPBM binding intensity (ln)” value was found to be 8.77 ± 0.2.
As to “TGTAAATTATAACGTGCACACATATTTAAAATGAAA [CACACA_site8915]”, the “gcPBM binding intensity (ln)” value turned out to be 9.39 ± 0.47.
As for “AGATATTTATTGAGTGCATGTTATAAAGGGAAAAAA [TGCATGCA_site88]”, the figure is 8.79 ± 0.3; as for “ATATAGAAAATGCATACACACTTTATAAATATATTT [CACACA_site6553]”, 8.54 ± 0.46.
As for “AGGATATATAAGTATACACACATATTTATATTTATA [CACACA_site6239]”, the figure is 8.23 ± 0.42; as for “AATTTAAAATATATAGTACACACGTGAACACAAATA [CACACA_site416]”, 8.77 ± 0.32.
As to “TTAAAATATACATAAACACACACAAAACGTTTAAGA [CACACA_site8267]”, the “gcPBM binding intensity (ln)” value came out at 8.89 ± 0.44.
Turning to “TTTTTTTTTTTTTTTTTTTTCACATGTGTGGAAAAA [GTGCAC_negctrl_site352]”, the “gcPBM binding intensity (ln)” value is 8.26 ± 0.38.
The value for “TAACAATAACTTTATACACACATAATATATATATAT [CACACA_site3543]” was 9.65 ± 0.33; that for “TGTATTTATAATAAAACACACATTTTTAATGTGCTC [CACACA_site4908]” was 8.03 ± 0.2.
The value for “TGTTGTCCTAATTCTACACACAATGGTTTATTAAAA [CACACA_site2648]” was 8.62 ± 0.23.
The value for “CATATACTTCTGTGCACACGAATATTTTTCTTCTTC [CACACA_site1407]” was 9.15 ± 0.042.
Turning to “TATACTCATATTTTTACACACATATTTTTTCATATA [CACACA_site5412]”, the “gcPBM binding intensity (ln)” value was found to be 8.64 ± 0.47.
As for “TTTTAACGTAAAACATTGATGATATAAAAAATAGGA [GTGCAC_negctrl_site540]”, the “gcPBM binding intensity (ln)” value stood at 8.66 ± 0.37.
Consider “TTTGTGTTTATAAATTGTACAAAGGTGCAAGAAGAA [XGTACX_site2159]”, for which the “gcPBM binding intensity (ln)” value was determined as 9.26 ± 0.3.
The value for “AAAAAAAAAAAAAACACACACACACCCATAAATATA [CACACA_site151]” was 8.65 ± 0.53; that for “AGGATTAAAAAAACATGTACGTATTTAAATATATTT [XGTACX_site8774]” was 8.72 ± 0.32.
The value for “AATTGAATAAATTAAACATGCACAGATGTTCTATTT [TGCATGCA_site692]” was 8.15 ± 0.3; that for “TACTGGTATCGATATAGTACATATAATATTATGTTA [XGTACX_site7490]” was 8.59 ± 0.31; that for “GTATAAAAAAATAAAAGTACAAAAAAAAAAGACTGA [XGTACX_site186]” was 8.79 ± 0.25.
The value for “AAATAAAAAATATGAACACACATATATAACAAAATA [CACACA_site261]” was 8.69 ± 0.41; that for “TTTTTTTTTTTTTTTTTTTTTTTTTTTTTTTTTTTT [CACACA_negctrl_site104]” was 9.31; that for “ATATAAATAAAATATACACACATAAATATAACGACA [CACACA_site1637]” was 8.88 ± 0.47.
As for “AACATTTCCTTTCTGTGTACATATAAACCCATCTAT [XGTACX_site2071]”, the “gcPBM binding intensity (ln)” value was 9.09 ± 0.45.
The value for “ACGAAGATTTATCTTGCACACGCAAAAAAAAAAAAA [CACACA_site7933]” was 8.49 ± 0.44; that for “AAAAAAAAAAAAAAAGCATGCACATATTATTTTTTT [TGCATGCA_site416]” was 9.03 ± 0.16.
For the sequence “ATTATATTTTGTAAATGTACATTTATATATTTTGTA [XGTACX_site1226]”, the “gcPBM binding intensity (ln)” value was 8.62 ± 0.36.
The value for “ATTCATAAACGTGTGTTAATATGAATTTAAACATAA [XGTACX_negctrl_site213]” was 8.32 ± 0.4; that for “ATTATAAGAAGGGGGGGTACATAAATATAAATGTAT [XGTACX_site5624]” was 10.4 ± 0.2; that for “TTATTTAAAAAATTTTTAAATATACAAAAAAAAAAA [TGCATGCA_negctrl_site464]” was 8.38 ± 0.3.
The value for “TTAATAATTAATTATAGTACACATTTATATTAATAA [XGTACX_site190]” was 8.38 ± 0.36; that for “TTTAATTTTCGGTGTGCACACAACTATGAGTTTTTA [CACACA_site3034]” was 8.84 ± 0.22; that for “TTTAAAAAAAAAAATACACACATAAAAATTTTCAAA [CACACA_site703]” was 8.31 ± 0.63.
The value for TCAAAAAAAATTTTAGTGCATATTTTAGTCAAAACA was 8.38 ± 0.16.
For “CATTCTACAATAAAAAGTACATATATATATTATATA [XGTACX_site921]”, the “gcPBM binding intensity (ln)” value stood at 8.43 ± 0.34.
The value for “ACACATATAATAGTTACATGCAAAAATACTTTTATT [TGCATGCA_site785]” was 8.78 ± 0.28; that for “TTTTTATAACATAAAAGTACATATTTTTAATTTAAT [XGTACX_site4394]” was 8.05 ± 0.4; that for “AAATTAAATGATAGAGCATGCGCTAAAAATGAGAAA [TGCATGCA_site937]” was 9.18 ± 0.42.
The value for “TAATATTTCGTTAAGTTTTAAAGAAAAAAAAAAAAA [CACACA_negctrl_site1253]” was 8.3 ± 0.53; that for “ATTTAAATAATATGTACACACATTTAAAAAGTTATA [CACACA_site7347]” was 8.37 ± 0.14; that for “AAATTAAAAATAATTACACACATAGAAAAGTTATAT [CACACA_site7137]” was 8.61 ± 0.3.

Source of the values: the supplement of paper PMC11417369.
